Experimental data: PubChem BioAssay AID624296 (National Center for Advancing Translational Sciences (NCATS), 2012)
Out of some 350,000 compounds screened, about 9,900 (2.8%) were called active. The inconclusive results got no clear call from the source; some entries with a clear call stand among them for comparison. Calls follow the shape of the dose curve; as a rule, active = well fitted activation curve with a large enough effect; inconclusive = small, poorly fitted or top-dose-only effect; inactive = no such curve, though single readings can be large or run the other way. Potencies of inconclusive entries are left out as doubtful fits.
Potency is read from the fitted curve at half-maximal effect; tags tell the direction and shape of the fitted curve.

Assay: A quantitative high throughput screen for small molecules that induce DNA re-replication in MCF 10a normal breast cells. Also: nearly all actives have a fitted effect of over 50% in size.
Conditions: MCF 10A DNA re-replication, Hoechst nuclear intensity, 48 h; series mostly up to 46.1 µM
With `CCc1cc(=O)oc2cc(C)cc(OCC(=O)N3CCC(C(=O)NC(C)C)(c4ccccc4)CC3)c12` the Potency was inconclusive [activator, single point].
In the case of `CN(Cc1ccccc1)CC(O)COc1ccc(CNCc2ccc(Cl)s2)cc1` (stereo unspecified), the Potency is reported as active: 16.4 µM.
For `COc1cccc(C(=O)OCC(=O)c2ccc(Br)s2)c1OC`, the Potency was “inactive”.
With `CC1(C)N=C(N)N=C(N)N1CCCCc1ccccc1` the Potency was “inactive”.
For `CCOc1ccc(CCNC(=O)c2ccc(Cl)c(S(=O)(=O)N3CCOCC3)c2)cc1OCC`, the Potency was inconclusive [activator, single point].
For `CC(=O)NC(C)c1cc(Cl)c2cccnc2c1O` (stereo unspecified), the Potency was active: 3.26 µM.
For `C=C(C)CN1CCN(c2c(CCC#N)c(C)c(C#N)c3nc4ccccc4n23)CC1`, the Potency was inconclusive [activator, partial curve, poor fit].
For `Cc1cccc2sc(NNC(=O)c3ccc(S(=O)(=O)N4CCCC(C)C4)cc3)nc12` (stereo unspecified), the Potency was inconclusive [activator, single point].
In the case of `Cc1onc(-c2ccccc2Cl)c1C(=O)Nc1ccc(N2CCOCC2)cc1`, the Potency is reported as inconclusive [activator, partial curve, poor fit].
For `O=C(c1cccc(OC2CCN(Cc3ccc(F)cc3)CC2)c1)N1CCCC1`, the Potency was inconclusive [activator, partial curve, poor fit].
For `C=CCNc1nc(-c2cccc(OC)c2O)nc2ccccc12`, the Potency was active: 23.1 µM.
In the case of `Cc1cc(NC(=O)NN2CCOCC2)nn1-c1c(Cl)cccc1Cl`, the Potency is reported as “inactive”.
For `Cc1cc(C)cc(NC(=S)NCCc2c[nH]c3ccccc23)c1`, the Potency was inconclusive [activator, full curve, poor fit].
In the case of `CC(O)Cn1cnc2c1c(=O)n(C)c(=O)n2C` (stereo unspecified), the Potency is reported as inconclusive [activator, full curve, poor fit].
With `O=C(c1cccnc1)N1CCN(Cc2cccc(F)c2)CC1` the Potency was inconclusive [activator, partial curve].
With `CC(C)=CCc1c(O)ccc2c1OC(c1ccc(O)c(O)c1)CC2=O` (stereo unspecified) the Potency was inconclusive [activator, single point].
In the case of `Cn1c(=O)n(C)c2cc(/C=C3/NC(=O)N(Cc4ccccc4)C3=O)ccc21`, the Potency is reported as inconclusive [activator, single point].
In the case of `O=C(CSc1nccc(-c2cccs2)n1)Nc1ccc(F)c(Cl)c1`, the Potency is reported as inconclusive [activator, single point].
With `C=CCN(CC=C)S(=O)(=O)c1ccc(NC(=S)NC(=O)/C=C/c2ccccc2)cc1` the Potency was inconclusive [activator, single point].
In the case of `O=C(COC(=O)c1cc(-c2ccc(Cl)s2)nc2ccccc12)NCc1ccco1`, the Potency is reported as inconclusive [activator, single point].
In the case of `Cc1ccnc(NS(=O)(=O)c2ccc(NS(=O)(=O)c3cc(Cl)ccc3Cl)cc2)n1`, the Potency is reported as “inactive”.
In the case of `Cc1cc(Cl)c(S(=O)(=O)N2CCCC2)cc1OCC(N)=O`, the Potency is reported as “inactive”.
For `Cc1cc(C)c(S(=O)(=O)/N=C2/C=C(SCC(=O)O)C(=O)c3ccccc32)cc1C`, the Potency was inconclusive [activator, partial curve, poor fit].
In the case of `Clc1ccccc1CN1CCN(/N=C/c2ccncc2)CC1`, the Potency is reported as inconclusive [activator, single point].
With `O=c1c2ccccc2nc(-c2ccc(Cl)c(Cl)c2)n1O` the Potency was inconclusive [activator, partial curve].
In the case of `C/C(=N\NC(=O)c1nnn(-c2nonc2N)c1CN(C)c1ccccc1)c1ccc(O)cc1`, the Potency is reported as “inactive”.
In the case of `COc1ccc(-c2oc3ccc(N4CCOCC4)cc3c2C#Cc2ccc(N)cc2)cc1`, the Potency is reported as active: 5.8 µM.
In the case of `O=C(NCc1cccnc1)c1cc(S(=O)(=O)N2CCCCC2)ccc1Cl`, the Potency is reported as “inactive”.
With `COC(=O)c1ccc(CNC(=O)c2cc(COc3cncc(Cl)c3)on2)cc1` the Potency was “inactive”.
In the case of `O=C(Oc1ccc(Cl)c2cccnc12)c1cccc([N+](=O)[O-])c1`, the Potency is reported as active: 3.66 µM.
With `COc1ccc(-c2csc(N(C)C(=O)c3cccs3)n2)cc1` the Potency was inconclusive [activator, partial curve, poor fit].
For `CCN(c1ccc(N=Cc2c(O)n(Cc3ccc(OC)cc3)c(=O)c3ccccc23)cc1)C(C)C`, the Potency was active: 7.31 µM.
In the case of `c1ccc2c(c1)nc1n2CCC1`, the Potency is reported as inconclusive [activator, partial curve, poor fit].
In the case of `O=C(NNC(=O)C1CC(c2cccs2)=NO1)Nc1ccc(Cl)cc1` (stereo unspecified), the Potency is reported as “inactive”.
In the case of `CCCCN1C(=O)C2(OCCCO2)c2cccc(C)c21`, the Potency is reported as “inactive”.
With `Cc1ccc(C)c(N2CCN(CCCNC(=O)Cn3cc4c(n3)CCCCC4)CC2)c1` the Potency was inconclusive [activator, partial curve, poor fit].
For `O=C(NC(=S)Nc1ccc(N2CCCCC2)cc1)c1ccco1`, the Potency was inconclusive [activator, single point].
With `COc1cc(/C=C/c2c([N+](=O)[O-])c(=O)n(C)c(=O)n2C)cc(OC)c1OC` the Potency was “inactive”.
With `COc1cc(OC)cc(C(=O)NNC(=O)c2ccc3ccccc3n2)c1` the Potency was “inactive”.
With `Cc1ccc(Cl)cc1N1CCN(S(=O)(=O)c2ccc3[nH]c(=O)ccc3c2)CC1` the Potency was active: 23.1 µM.
For `CC(=O)Nc1ccc(S(=O)(=O)NCc2cc(=O)n(C)c(=O)n2C)cc1`, the Potency was inconclusive [activator, single point].
In the case of `C=CCc1cccc(/C=N/NC(=O)CCCNc2ccc(C)cc2)c1O`, the Potency is reported as inconclusive [activator, full curve, poor fit].
For `CCN(CC)CCNC(=O)c1cc2c(=O)n(C)c3ccccc3c2n1C`, the Potency was inconclusive [activator, single point].
In the case of `O=C(O)c1ccc(S(=O)(=O)NCC2CCCCC2)cc1`, the Potency is reported as “inactive”.
In the case of `COc1ccc(C2N=C(N)N=C(N)N2c2ccccc2)cc1OC` (stereo unspecified), the Potency is reported as inconclusive [activator, single point].
For `Cc1ccccc1OCCn1c(C)nc2ccccc21`, the Potency was inconclusive [activator, partial curve, poor fit].
